First the molecules themselves.
B1: GPR68, Q15743 (parent)
chain: MGNITADNSSMSCTIDHTIHQTLAPVVYVTVLVVGFPANCLSLYFGYLQIKARNELGVYLCNLTVADLFYICSLPFWLQYVLQHDNWSHGDLSCQVCGILLYENIYISVGFLCCISVDRYLAVAHPFRFHQFRTLKAAVGVSVVIWAKELLTSIYFLMHEEVIEDENQHRVCFEHYPIQAWQRAINYYRFLVGFLFPICLLLASYQGILRAVRRSHGTQKSRKDQIQRLVLSTVVIFLACFLPYHVLLLVRSVWEASCDFAKGVFNAYHFSLLLTSFNCVADPVLYCFVSETTHRDLARLRGACLAFLTCSRTGRAREAYPLGAPEASGKSGAQGEEPELLTKLHPAFQTPNSPGSGGFPTGRLA

Data set [1] covers variants of B1. As to the kind of experiment: cAMP reporter score (Enrich2 score, wild type = 0); higher = more signal; HEK293T, FACS bins.
The variants in data set [2] derive from B1. As to the kind of experiment: surface expression score (Enrich2 score, wild type = 0); higher = more signal; HEK293T, FACS bins.

Scores whose standard error is large were omitted. The source holds two more conditions with little spread; they are left out. In variant names, del marks residues removed and ins residues inserted between the two positions. For some of these results: The concentration of ogerin is not given here.

MGNITADNSSMSCTIDHTIHQTLAPVVYVTVLVVGFPANCLSLYFGYLQIKARNELGVYLCNLTVADLFYICSLPFWLQYVLQHDNWSHGDLSCQVCGILLYENIYISVGFLCCISVDRYLAVAHPFRFHQFRTLKAAVGVSVVIWAKELLTSIYFLMHEEVIEDENQHRVCFEHYPIQAWQRAINYYRFLVGFLFPICLLLASYQGILRAVRRSHGTQKSRKDQIQRLVLSTVVIFLACFLPYHVLLLVRSVWEASCDFAKGVFNAYHFSLLLTSFNCVADPVLYCFVSETTHVDLARLRGACLAFLTCSRTGRAREAYPLGAPEASGKSGAQGEEPELLTKLHPAFQTPNSPGSGGFPTGRLA [R295V]: the cAMP reporter score in data set [1] (pH 5.5) was -0.055; in data set [1] (pH 6, modulator: ogerin) it was 0.271; in data set [1] (pH 6.5, modulator: ogerin) it was 0.11. Besides, in data set [2], the surface expression score was 2.2.
As for MGNITADNSSMSCTIDHTIHQTLAPVVYVTVLVVGFPANCLSLYFGYLQIKARNELGVYLCNLTVADLFYICSLPFWLQYVLQHDNWSHGDLSCQVCGILLYENIYISVGFLCCISVDRYLAVAHPFRFHQFRTLKAAVGVSVVIWAKELLTSIYFLMHEEVIEDENQHRVCFEHYPIQAWQRAINYYRFLVGFLFPICLLLASYQGILRAVRRSHGTQKSRKDQIQRLVLSTVVIFLACFLPYHVLLLVRSVWEASCDFAKGVFNAYHFSLLLTSFNCVADPVLYCFVSETTHSDLARLRGACLAFLTCSRTGRAREAYPLGAPEASGKSGAQGEEPELLTKLHPAFQTPNSPGSGGFPTGRLA [R295S], the cAMP reporter score was -0.354 in data set [1] (pH 5.5); -0.422 in data set [1] (pH 6); -0.574 in data set [1] (pH 6, modulator: ogerin); -0.585 in data set [1] (pH 6.5, modulator: ogerin). For the same variant, the surface expression score in data set [2] was -0.292.
In the same order, the values of MGNITADNSSMSCTIDHTIHQTLAPVVYVTVLVVGFPANCLSLYFGYLQIKARNELGVYLCNLTVADLFYICSLPFWLQYVLQHDNWSHGDLSCQVCGILLYENIYISVGFLCCISVDRYLAVAHPFRFHQFRTLKAAVGVSVVIWAKELLTSIYFLMHEEVIEDENQHRVCFEHYPIQAWQRAINYYRFLVGFLFPICLLLASYQGILRAVRRSHGTQKSRKDQIQRLVLSTVVIFLACFLPYHVLLLVRSVWEASCDFAKGVFNAYHFSLLLTSFNCVADPVLYCFVSETTHWDLARLRGACLAFLTCSRTGRAREAYPLGAPEASGKSGAQGEEPELLTKLHPAFQTPNSPGSGGFPTGRLA [R295W] are -0.196, -0.885, -1.11, -1.17 and 0.75.
In the same order, the values of MGNITADNSSMSCTIDHTIHQTLAPVVYVTVLVVGFPANCLSLYFGYLQIKARNELGVYLCNLTVADLFYICSLPFWLQYVLQHDNWSHGDLSCQVCGILLYENIYISVGFLCCISVDRYLAVAHPFRFHQFRTLKAAVGVSVVIWAKELLTSIYFLMHEEVIEDENQHRVCFEHYPIQAWQRAINYYRFLVGFLFPICLLLASYQGILRAVRRSHGTQKSRKDQIQRLVLSTVVIFLACFLPYHVLLLVRSVWEASCDFAKGVFNAYHFSLLLTSFNCVADPVLYCFVSETTHYDLARLRGACLAFLTCSRTGRAREAYPLGAPEASGKSGAQGEEPELLTKLHPAFQTPNSPGSGGFPTGRLA [R295Y] are 0.471, -0.479, -0.22, -0.409 and 0.653.

Source of the values: the GPR68 mutational scans of Howard et al. (2025).
